Source: the supplement of paper PMC4166925
± gives the standard deviation of the averaged measurements. Over roughly 33,000 sequences, “E-score (dimensionless, -0.5 to 0.5)” has its median near -0.046; the highest 2% begin near 0.36. The list shows a part of the results.

The sequences below were run on T1, SpTbr T-box DNA-binding domain (GST fusion) (assay: PBM E-score of 8-mer (E-score (dimensionless, -0.5 to 0.5)); Tbr is Tbrain of the sea star Patiria miniata (Pm) or the sea urchin Strongylocentrotus purpuratus (Sp); higher = stronger binding preference; most listed sequences are background and not binding sites). Conditions: the construct has about 5 more residues each side.
T1 sequence: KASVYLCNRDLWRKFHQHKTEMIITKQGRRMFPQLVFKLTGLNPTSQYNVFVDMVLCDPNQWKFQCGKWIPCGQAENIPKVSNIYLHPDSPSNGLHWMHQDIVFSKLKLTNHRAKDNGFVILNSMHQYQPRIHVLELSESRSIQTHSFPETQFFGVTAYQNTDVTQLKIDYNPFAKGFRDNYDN
In short: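 GST-fused Tbr T-box DNA-binding domains (the whole T-box plus about five flanking residues) were expressed in BL21 E. coli at 20 °C and purified by glutathione affinity chromatography. Universal Agilent oligonucleotide arrays were made double-stranded by primer extension, incubated with 200 nM protein in PBS (pH 7.5), then scanned and quantified. Every ungapped 8-mer was scored from probe intensities. The Universal PBM Analysis Suite gave each word an enrichment E-score, averaged over duplicate arrays.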

Sequence	PBM E-score of 8-mer
GAGATGTA	-0.173 ± 0.009
GAAGAAGA	-0.225 ± 0.13
AAACTGCT	0.109 ± 0.05
ATCCCCTC	-0.0282 ± 0.014
CGTACGAA	0.127 ± 0.017
CTTGTTAA	0.257 ± 0.053
AACTGCCT	0.069 ± 0.005
AAACTGTC	0.161 ± 0.016
AACTGGCG	0.138 ± 0.019
CTACCTAG	0.0574 ± 0.051
AAGGTAAT	-0.0476 ± 0.02
CGAGGGAC	-0.0656 ± 0.053
GATGTCGA	0.138 ± 0.021
CTAAGCCC	-0.294 ± 0.052
AATATTTC	0.0628 ± 0.051
AGTTTGCG	0.0593 ± 0.054
TAGGAGCA	-0.084 ± 0.065
CTGCCCTA	-0.145 ± 0.0092
AAGAATGG	-0.127 ± 0.0028
CGATCGTA	0.0554 ± 0.032
GCAGCCAC	0.126 ± 0.026
ATACTCCA	-0.0846 ± 0.1
CCCGGTTA	-0.122 ± 0.056
ACCCTGTG	0.211 ± 0.031
CGAACTCA	0.0559 ± 0.063

Sequence	PBM E-score of 8-mer
CAATCTCA	0.128 ± 0.014
CGGCCGCA	0.0778 ± 0.042
AAACCAGT	-0.222 ± 0.049
AACTCCAT	0.0047 ± 0.023
GCGGTTCC	-0.0655 ± 0.06
AAACGCGT	0.0675 ± 0.0019
ACGGAATC	-0.021 ± 0.073
AAAAGTCG	0.0781 ± 0.0043
GTGATTAA	0.221 ± 0.008
GATTCTAC	-0.259 ± 0.035
GCACGACA	0.0383 ± 0.017
TCGAGAGA	-0.0261 ± 0.078
CCTTAACC	-0.0815 ± 0.021
AATTGACG	0.216 ± 0.0043
CGGATACA	-0.16 ± 0.057
GATTAGGC	-0.0497 ± 0.073
ACGATTAC	0.00732 ± 0.051
CATGGCCA	-0.157 ± 0.013
CCAGAGCA	-0.2741 ± 0.0017
AGATCCTG	-0.231 ± 0.057
CAGTACCA	0.0057 ± 0.0043
GTTACGCA	-0.114 ± 0.029
CCGCATCA	0.0662 ± 0.035
CAGTGGAA	-0.24 ± 0.042
ATGACACA	0.327 ± 0.033

Sequence	PBM E-score of 8-mer
CTTCCTCA	0.128 ± 0.054
AATTGATA	0.149 ± 0.094
ATGATCGC	0.115 ± 0.023
CCCCTCTC	-0.208 ± 0.05
AGCGGGAA	0.125 ± 0.016
CGAGACCA	0.0941 ± 0.029
CGTCACAA	0.244 ± 0.0062
ATTCGTAA	-0.028 ± 0.068
ATCATGTA	-0.14 ± 0.042
GATACCGC	0.00598 ± 0.069
CAGTTAGA	-0.108 ± 0.07
GCCTGAGA	0.00683 ± 0.026
AAGAACTC	-0.153 ± 0.023
ATGTCATG	-0.098 ± 0.02
GCAAGCAC	0.00728 ± 0.027
TATACACA	0.0585 ± 0.036
ATACGCTG	0.0127 ± 0.13
TCCTATCA	-0.0124 ± 0.0011
ATTCTATA	-0.18 ± 0.069
CATGGGCG	0.145 ± 0.087
CTAAGGTC	-0.126 ± 0.021
GGACGAGA	-0.114 ± 0.062
CTACAAGC	-0.038 ± 0.033
GGTAGCGA	0.222 ± 0.01
CTCGTTCC	-0.218 ± 0.11

Sequence	PBM E-score of 8-mer
ACAAAATG	0.11 ± 0.04
ACGCGCAC	0.203 ± 0.069
GAAGAGCA	0.0444 ± 0.043
CAAGAGCA	-0.0625 ± 0.015
ATCCACCA	-0.0741 ± 0.0042
CCACGCAA	-0.0331 ± 0.06
CTTGCTTA	0.0844 ± 0.0068
TACACCGA	0.118 ± 0.1
ATATGCCA	0.00604 ± 0.0092
AACCCGGT	-0.128 ± 0.083
GAAAAGGC	0.0857 ± 0.012
AACACATA	0.345 ± 0.029
GTGCCTGA	0.0364 ± 0.073
TCAACAAA	-0.0651 ± 0.048
ACAACGGT	0.264 ± 0.0062
ACACGGTA	0.119 ± 0.027
AAACGATG	-0.0331 ± 0.027
TAGCTGCA	-0.0804 ± 0.023
ATATGGGC	-0.205 ± 0.0097
CCACCGAC	0.129 ± 0.033
AAAGAGAT	0.0332 ± 0.016
TACAGATA	-0.0788 ± 0.0015
AATCCTGC	-0.0488 ± 0.018
AGAATGAA	-0.141 ± 0.0068
TAGTTGGA	-0.348 ± 0.045

Sequence	PBM E-score of 8-mer
TCGGCTAA	-0.0195 ± 0.038
AGACGGTA	-0.218 ± 0.036
GCTCAGAC	-0.0633 ± 0.099
AACCCGTT	-0.0209 ± 0.077
ACTCGAGT	-0.0367 ± 0.092
CACCCAGC	0.18 ± 0.0018
AGGCAGCC	-0.157 ± 0.006
AAAACGGG	-0.158 ± 0.063
AATTGGGG	-0.239 ± 0.055
GAAGCTCA	0.0158 ± 0.045
CGCCTCCC	0.137 ± 0.01
CAGAGGGC	-0.212 ± 0.015
ACTACAGG	-0.201 ± 0.05
ATGACGAA	-0.055 ± 0.0083
CTACCAGC	0.0374 ± 0.0074
ACTCGGAC	0.0785 ± 0.018
AGACTGCC	-0.106 ± 0.0049
CACCACCG	0.256 ± 0.016
ACTAAGCT	-0.161 ± 0.023
AGAAGCGG	0.0334 ± 0.076
CCGTGGGC	-0.221 ± 0.073
AGCCAGTC	-0.0802 ± 0.1
AGTTTGAG	-0.151 ± 0.058
AGTATGAA	-0.236 ± 0.11
GCAGTCGC	0.0192 ± 0.033

Sequence	PBM E-score of 8-mer
ATAGGGGA	-0.303 ± 0.056
GGCCGTGA	0.205 ± 0.012
ATGAGGCA	-0.233 ± 0.013
GACGTTGC	0.0625 ± 0.021
ATATCATA	0.00487 ± 0.0068
ATATGCGC	-0.0304 ± 0.027
AGGTACCC	-0.1685 ± 9.2e-05
CTTATAGC	-0.0743 ± 0.037
CATCCAAC	-0.0729 ± 0.022
CATAGTAG	-0.18 ± 0.055
CTATGAGC	-0.1 ± 0.02
AAGTCCCC	-0.225 ± 0.067
AACCCGGG	-0.143 ± 0.14
GAGGGTGA	0.268 ± 0.022
TAGCTAGA	-0.0623 ± 0.039
AAGTACGG	-0.241 ± 0.0081
CGGCACCG	0.0205 ± 0.045
AATGCCGC	5e-06 ± 0.013
CACGACTC	0.164 ± 0.033
GAACAACC	0.00944 ± 0.031
CAATGCTC	-0.229 ± 0.016
ATTGTAAG	-0.0959 ± 0.013
CAAACTTG	0.0812 ± 0.026
ACCCTGAC	0.0521 ± 0.033
ATTCGTCA	0.197 ± 0.048

Sequence	PBM E-score of 8-mer
GGATCTGA	-0.229 ± 0.034
AGTATCTA	-0.211 ± 0.0092
CCTTAGGC	-0.0683 ± 0.012
AGTGTGCG	0.251 ± 0.017
ATGGTGTC	0.392 ± 0.005
ACGATTCC	0.108 ± 0.036
CAATGGGA	-0.116 ± 0.015
ATGGTATC	-0.106 ± 0.066
GTTATTGA	0.08 ± 0.058
CGCCTAGA	-0.0316 ± 0.023
CATAGGCA	-0.259 ± 0.054
GGGAAGTA	-0.201 ± 0.049
TCCCCGAA	-0.131 ± 0.022
GGTCCTAA	-0.195 ± 0.038
CCGCTGTA	-0.106 ± 0.0058
CGCCCACG	0.0689 ± 0.064
CAATCGCA	0.175 ± 0.0096
ACGACTCA	-0.0191 ± 0.018
GTCACTTA	0.288 ± 0.019
ATGGGCCG	-0.31 ± 0.017
TTAATTAA	-0.0659 ± 0.12
GACGCATC	0.133 ± 0.052
